Experimental findings from the supplement of paper PMC8285479 are described below.

Structures can show the parent of a compound that is named as a salt. ± gives the standard deviation of the averaged measurements. In all, about 1,900 compounds were measured (“normalised cell viability (NPI; 0 = phenylarsine oxide control, 1 = DMSO control)”: median about 1, lowest 2% from about 0.039 on). The list shows a part of the results.

In this experiment the test system is NCI-H1944. Nature of the experiment: normalised cell viability (NPI; 0 = phenylarsine oxide control, 1 = DMSO control) (fraction of DMSO control); NCI-H1944 is a non-small cell lung cancer line; higher = more viable cells (less compound toxicity). The conditions noted are these: 6 days.
Setting [1] is: glucocorticoid arm: hydrocortisone 2.75 uM co-treatment, compound 1 µM.
The mark [2] stands for this setting: glucocorticoid arm: hydrocortisone 2.75 uM co-treatment, compound 5 µM.
Setting [3] is: glucocorticoid arm: hydrocortisone 2.75 uM pre-treated 2 days and continued, compound 1 µM.
The mark [4] stands for this setting: glucocorticoid arm: hydrocortisone 2.75 uM pre-treated 2 days and continued, compound 5 µM.
Where [5] appears, read: glucocorticoid arm: vehicle, compound 1 µM.
Setting [6] is: glucocorticoid arm: vehicle, compound 5 µM.
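Further: CTB read-out in 384-well plates, mean of triplicate wells, normalised per plate against 1 µM phenylarsine oxide and 0.1% DMSO, compounds added 24 h after seeding.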

Consider `O=NN(CCCl)C(=O)NC1CCCCC1` [Lomustine, CCNU; Lomustine], for which the normalised cell viability by setting is: under setting [1], 1.01 ± 0.02; under setting [2], 1.07 ± 0.061; under setting [3], 1.01 ± 0.01; under setting [4], 1.04 ± 0.01; under setting [5], 0.9987 ± 0.0098; under setting [6], 1 ± 0.0091.

Regarding `CC(C)Cc1ccc(C(C)C(=O)O)cc1` (racemic) [(±)-Ibuprofen], the normalised cell viability reads like this: under setting [1], 0.992 ± 0.012; under setting [2], 1.02 ± 0.02; under setting [3], 0.998 ± 0.0035; under setting [4], 1.04 ± 0.077; under setting [5], 0.9873 ± 0.0015; under setting [6], 0.9917 ± 0.0015.

As to `O=C1N(c2ccccc2)c2ccccc2C1(Cc1ccncc1)Cc1ccncc1` [Linopirdine], the normalised cell viability is 0.9967 ± 0.0042 under setting [1]; 1.03 ± 0.03 under setting [2]; 1 ± 0.0084 under setting [3]; 1.06 ± 0.074 under setting [4]; 0.984 ± 0.0053 under setting [5]; 0.9897 ± 0.0095 under setting [6].

For `CCCn1c(=O)c2[nH]c(-c3ccc(S(=O)(=O)O)cc3)nc2n(CCC)c1=O` [1,3-Dipropyl-8-p-sulfophenylxanthine], the normalised cell viability by setting is: under setting [1], 0.9873 ± 0.0049; under setting [2], 0.99 ± 0.01; under setting [3], 0.994 ± 0.01; under setting [4], 0.986 ± 0.034; under setting [5], 0.996 ± 0.016; under setting [6], 0.996 ± 0.0061.

For `Cc1ccccc1N1C(=O)c2cc(S(N)(=O)=O)c(Cl)cc2NC1C` (stereo not given) [Metolazone], the normalised cell viability under setting [4] was determined as 1.02.

As to `CN(C)CCC(c1ccc(Br)cc1)c1ccccn1` (racemic) [(±)-Brompheniramine maleate], the normalised cell viability under setting [1] came to 1.001 ± 0.0081; the normalised cell viability under setting [2] is 1.03 ± 0.017; the normalised cell viability under setting [3] turned out to be 1.013 ± 0.0058; the normalised cell viability under setting [4] was determined as 1.04 ± 0.014; the normalised cell viability under setting [5] amounted to 1.013 ± 0.0058; the normalised cell viability under setting [6] stood at 1.02 ± 0.01.

In the case of `OCCOCCN1CCN(C(c2ccccc2)c2ccc(Cl)cc2)CC1` (stereo not given) [Hydroxyzine 2HCl], the normalised cell viability by setting is: under setting [1], 0.9733 ± 0.0051; under setting [2], 0.957 ± 0.03; under setting [3], 0.97 ± 0.024; under setting [4], 0.993 ± 0.024; under setting [5], 1.003 ± 0.0063; under setting [6], 0.9973 ± 0.0025.

As for `COc1ccc(CNC(=O)Nc2ncc([N+](=O)[O-])s2)cc1`, the normalised cell viability under setting [1] was determined as 1.01 ± 0.016; the normalised cell viability under setting [2] worked out at 1.04 ± 0.011; the normalised cell viability under setting [3] was found to be 1.007 ± 0.0058; the normalised cell viability under setting [4] came to 1.02 ± 0.017; the normalised cell viability under setting [5] was 0.998 ± 0.0035; the normalised cell viability under setting [6] turned out to be 1.01 ± 0.012.

As for `Nc1nc(SCc2ccc([N+](=O)[O-])cc2)c2ncn([C@@H]3O[C@H](CO)[C@H](O)C3O)c2n1` (stereo partly drawn) [S-(4-Nitrobenzyl)-6-thioguanosine], the normalised cell viability under setting [1] worked out at 0.9907 ± 0.0067; the normalised cell viability under setting [2] was determined as 0.987 ± 0.017; the normalised cell viability under setting [3] worked out at 0.989 ± 0.018; the normalised cell viability under setting [4] is 0.976 ± 0.0071; the normalised cell viability under setting [5] was found to be 0.978 ± 0.014; the normalised cell viability under setting [6] stood at 0.9767 ± 0.0051.

Consider `O=C(c1ccc(Cl)cc1)N1CCN(c2ccc([N+](=O)[O-])c3ncccc23)CC1`, for which the normalised cell viability is, setting by setting: under setting [1], 1.01 ± 0.013; under setting [2], 1.01 ± 0.027; under setting [3], 0.992 ± 0.014; under setting [4], 0.996 ± 0.014; under setting [5], 0.997 ± 0.015; under setting [6], 1 ± 0.021.

Turning to `Nc1cccc2c1CN(C1CCC(=O)NC1=O)C2=O` (stereo not given) [Lenalidomide], the normalised cell viability reads like this: under setting [1], 1.02 ± 0.01; under setting [2], 1.06 ± 0.032; under setting [3], 1.02 ± 0.01; under setting [4], 1.04 ± 0.015; under setting [5], 0.995 ± 0.0046; under setting [6], 1.005 ± 0.0092.

For the compound `Nc1cccc2c1CN(C1CCC(=O)NC1=O)C2=O` (stereo not given) [Lenalidomide (Revlimid)], the normalised cell viability under setting [1] came out at 0.997 ± 0.015; the normalised cell viability under setting [2] turned out to be 1.037 ± 0.0058; the normalised cell viability under setting [3] was 0.998 ± 0.028; the normalised cell viability under setting [4] worked out at 1.03 ± 0.015; the normalised cell viability under setting [5] is 1.002 ± 0.0076; the normalised cell viability under setting [6] came out at 1.002 ± 0.0068.

Consider `O=C(Nc1ccc(-c2ccnc(Nc3ccc(N4CCOCC4)cc3)n2)cc1)C1CCCN1` (stereo not given), for which the normalised cell viability under setting [1] was found to be 0.997 ± 0.018; the normalised cell viability under setting [2] turned out to be 0.966 ± 0.017; the normalised cell viability under setting [3] stood at 0.975 ± 0.013; the normalised cell viability under setting [4] was 0.939 ± 0.024; the normalised cell viability under setting [5] stood at 1.002 ± 0.0065; the normalised cell viability under setting [6] came to 1.01 ± 0.011.

Consider `NOCC(=O)O` [O-(Carboxymethyl)hydroxylamine hemihydrochloride], for which the normalised cell viability was determined as 0.9827 ± 0.0074 under setting [1]; 0.978 ± 0.02 under setting [2]; 0.99133 ± 0.00058 under setting [3]; 0.966 ± 0.0085 under setting [4]; 0.9807 ± 0.009 under setting [5]; 0.9753 ± 0.0051 under setting [6].

`CCC[C@H](NC(=O)[C@@H]1[C@H]2CCC[C@H]2CN1C(=O)[C@@H](NC(=O)[C@@H](NC(=O)c1cnccn1)C1CCCCC1)C(C)(C)C)C(=O)C(=O)NC1CC1` [Telaprevir (VX-950)]: the normalised cell viability under setting [1] is 0.981 ± 0.014; the normalised cell viability under setting [2] came to 1.02 ± 0.02; the normalised cell viability under setting [3] came out at 0.994 ± 0.018; the normalised cell viability under setting [4] was 1.017 ± 0.0058; the normalised cell viability under setting [5] came out at 0.986 ± 0.012; the normalised cell viability under setting [6] was determined as 1.004 ± 0.0098.

`CCc1cccc2c3c([nH]c12)C(CC)(CC(=O)O)OCC3` (stereo not given) [Etodolac]: the normalised cell viability runs as follows: under setting [1], 1.007 ± 0.0058; under setting [2], 0.9933 ± 0.0076; under setting [3], 1.01 ± 0.013; under setting [4], 1.001 ± 0.0082; under setting [5], 1.003 ± 0.0058; under setting [6], 1.003 ± 0.0058.

On to `C[C@@H]1CN(CC(=O)Nc2ccc3c(c2)Cc2cccc(-c4cc(=O)cc(N5CCOCC5)o4)c2S3)C[C@H](C)O1`, for which the normalised cell viability by setting is: under setting [1], 0.992 ± 0.01; under setting [2], 1.01 ± 0.034; under setting [3], 0.9797 ± 0.007; under setting [4], 0.984 ± 0.017; under setting [5], 1.01 ± 0.012; under setting [6], 1.013 ± 0.0058.

With `CN(C)CCCO[C@@H]1[C@H]2OC(C)(C)O[C@H]2O[C@@H]1[C@H](O)CO` [Amiprilose hydrochloride], the normalised cell viability reads like this: under setting [1], 0.998 ± 0.013; under setting [2], 1 ± 0.016; under setting [3], 0.917 ± 0.13; under setting [4], 0.999 ± 0.016; under setting [5], 0.998 ± 0.011; under setting [6], 0.999 ± 0.011.

As to `C[C@]12CC[C@@H]3c4ccc(O)cc4CC[C@H]3[C@@H]1C[C@@H](O)[C@@H]2O` [Estriol], the normalised cell viability reads like this: under setting [1], 1.02 ± 0.011; under setting [2], 1.01 ± 0.014; under setting [3], 1.01 ± 0.01; under setting [4], 1.02 ± 0.021; under setting [5], 1.007 ± 0.0058; under setting [6], 1.01 ± 0.011.

With `C=CC(=O)Nc1ccc2ncnc(Nc3ccc(OCc4cccc(F)c4)c(Cl)c3)c2c1`, the normalised cell viability by setting is: under setting [1], 0.905 ± 0.016; under setting [2], 0.854 ± 0.043; under setting [3], 0.92 ± 0.014; under setting [4], 0.93 ± 0.023; under setting [5], 0.815 ± 0.021; under setting [6], 0.623 ± 0.016.

On to `CC1=C(CC(=O)O)c2cc(F)ccc2/C1=C\c1ccc([S+](C)[O-])cc1` (stereo not given) [Sulindac], for which the normalised cell viability under setting [1] was determined as 1 ± 0.0089; the normalised cell viability under setting [2] worked out at 1.03 ± 0.011; the normalised cell viability under setting [3] was 1.03 ± 0.046; the normalised cell viability under setting [4] was found to be 1.01 ± 0.023; the normalised cell viability under setting [5] was 0.9923 ± 0.0055; the normalised cell viability under setting [6] was 0.9943 ± 0.006.

Turning to `C=CC(=O)N1CCC[C@@H](n2nc(-c3ccc(Oc4ccccc4)cc3)c3c(N)ncnc32)C1`, the normalised cell viability was 0.885 ± 0.026 under setting [1]; 0.894 ± 0.019 under setting [2]; 0.9473 ± 0.0055 under setting [3]; 0.931 ± 0.051 under setting [4]; 0.836 ± 0.027 under setting [5]; 0.771 ± 0.036 under setting [6].

Consider `O=C(O)/C(=C\c1c(C(=O)O)[nH]c2cc(Cl)cc(Cl)c12)c1ccccc1`, for which the normalised cell viability is, setting by setting: under setting [1], 1.02 ± 0.015; under setting [2], 1.06 ± 0.017; under setting [3], 1.017 ± 0.0058; under setting [4], 1.08 ± 0.081; under setting [5], 0.995 ± 0.002; under setting [6], 1.013 ± 0.0058.

For the compound `COC[C@H](NC(=O)c1cnc(C)s1)C(=O)N[C@@H](COC)C(=O)N[C@@H](Cc1ccccc1)C(=O)[C@@]1(C)CO1` [Oprozomib (ONX 0912)], the normalised cell viability under setting [1] amounted to 0.208 ± 0.051; the normalised cell viability under setting [2] stood at 0.0253 ± 0.0081; the normalised cell viability under setting [3] was 0.7 ± 0.017; the normalised cell viability under setting [4] came to 0.301 ± 0.021; the normalised cell viability under setting [5] worked out at 0.0106 ± 0.0015; the normalised cell viability under setting [6] came out at 0.00109 ± 0.00065.

For `O=C(O)c1cc(O)c2ccc(Cl)cc2n1` [7-Chlorokynurenic acid], the normalised cell viability under setting [1] came to 1.002 ± 0.0069; the normalised cell viability under setting [2] amounted to 0.974 ± 0.0072; the normalised cell viability under setting [3] was 1.01 ± 0.015; the normalised cell viability under setting [4] was 0.9873 ± 0.0046; the normalised cell viability under setting [5] stood at 1.01 ± 0.01; the normalised cell viability under setting [6] is 0.997 ± 0.0036.
